From patent US20210070868A1 (published 2021)

Legend:
[1] = molecular target: T1, wild-type decoyMET (extracellular portion of human HGFR/MET: SEMA, PSI, IPT-1 to IPT-4) (UniProt P08581 25-932); test: ELISA
T1 chain: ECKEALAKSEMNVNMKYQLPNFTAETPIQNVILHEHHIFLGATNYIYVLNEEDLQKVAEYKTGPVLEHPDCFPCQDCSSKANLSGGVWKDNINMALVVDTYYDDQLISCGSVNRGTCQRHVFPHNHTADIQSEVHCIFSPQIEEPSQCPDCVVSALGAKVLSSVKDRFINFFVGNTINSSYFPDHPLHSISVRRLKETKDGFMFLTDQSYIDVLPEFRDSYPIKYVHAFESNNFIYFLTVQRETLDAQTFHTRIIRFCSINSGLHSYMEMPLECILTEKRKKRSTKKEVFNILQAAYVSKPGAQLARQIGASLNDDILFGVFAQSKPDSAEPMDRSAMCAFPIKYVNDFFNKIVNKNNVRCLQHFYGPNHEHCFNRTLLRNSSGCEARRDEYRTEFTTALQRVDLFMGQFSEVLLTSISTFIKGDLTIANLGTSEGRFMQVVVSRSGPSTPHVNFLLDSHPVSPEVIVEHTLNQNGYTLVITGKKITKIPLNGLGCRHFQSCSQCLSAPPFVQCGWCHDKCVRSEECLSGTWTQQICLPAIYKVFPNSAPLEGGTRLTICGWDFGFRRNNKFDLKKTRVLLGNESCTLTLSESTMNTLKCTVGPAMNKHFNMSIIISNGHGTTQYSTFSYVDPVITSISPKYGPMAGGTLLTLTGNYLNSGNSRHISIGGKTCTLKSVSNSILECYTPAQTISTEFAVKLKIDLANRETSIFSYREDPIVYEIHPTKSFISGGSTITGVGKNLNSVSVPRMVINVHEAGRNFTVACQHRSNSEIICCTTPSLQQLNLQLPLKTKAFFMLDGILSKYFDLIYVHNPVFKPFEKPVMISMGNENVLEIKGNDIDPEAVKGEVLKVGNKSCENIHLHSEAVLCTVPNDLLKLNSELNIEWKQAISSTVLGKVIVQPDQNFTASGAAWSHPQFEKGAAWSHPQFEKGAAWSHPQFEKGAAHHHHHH

[2] = molecular target: Hepatocyte Growth Factor (HGF) (UniProt P14210 32-728); test: ELISA
UniProt P14210, sequence (P14210 32-728): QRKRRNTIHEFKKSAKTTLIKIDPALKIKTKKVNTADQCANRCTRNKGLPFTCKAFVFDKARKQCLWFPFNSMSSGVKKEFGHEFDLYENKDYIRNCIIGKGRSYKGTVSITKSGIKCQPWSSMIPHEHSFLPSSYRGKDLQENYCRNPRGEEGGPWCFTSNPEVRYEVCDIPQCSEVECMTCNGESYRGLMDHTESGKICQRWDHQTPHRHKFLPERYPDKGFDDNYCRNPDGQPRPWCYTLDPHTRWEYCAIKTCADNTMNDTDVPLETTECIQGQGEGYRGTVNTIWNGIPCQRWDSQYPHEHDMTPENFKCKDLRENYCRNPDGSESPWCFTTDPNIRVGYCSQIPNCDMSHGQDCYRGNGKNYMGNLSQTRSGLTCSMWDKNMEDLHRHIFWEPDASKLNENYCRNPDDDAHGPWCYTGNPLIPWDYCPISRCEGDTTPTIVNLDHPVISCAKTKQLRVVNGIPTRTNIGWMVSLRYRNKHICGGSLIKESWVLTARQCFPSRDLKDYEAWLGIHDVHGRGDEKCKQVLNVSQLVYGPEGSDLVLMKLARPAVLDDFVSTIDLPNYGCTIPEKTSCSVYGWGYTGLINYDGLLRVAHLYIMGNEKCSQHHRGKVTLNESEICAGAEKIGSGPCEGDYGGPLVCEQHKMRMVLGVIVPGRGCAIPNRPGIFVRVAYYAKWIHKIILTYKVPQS

Kd [1]: 8.44 nM
Kd [2]: 0.262 nM
B1: fusion protein with scMvDN30 at the N-terminal, linker L60 and decoyMET^K842E at the C-terminal (other)
chain: DIVLTQSPASLAVSLGQRATISCKASQSVDYDGGSYMSWFQQRPGQPPKLLISAASNLESGIPARFSGSGSGTDFTLNIHPVEEEDVATYYCQQSYEDPLTFGAGTKVEIKRTVAAPSVFIFPPSDEQLKSGTASVVCLLNNFYPREAKVQWKVDNALQSGNSQESVTEQDSKDSTYSLSSTLTLSKADYEKHKVYACEVTHQGLSSPVTKSFNRGECGGSSGSGSGSTGTSSSGTGTSAGTTGTSASTSGSGSGGGGGSGGGGSAGGTATAGASSGSVQLQQPGTELVKPGASVKLSCKASGYTFTSYWIHWVKQRPGQGLEWIGEINPSSGRTNYNEKFKNKVTVTVDKSSTTAYMQLSNLTSEDSAVYYCASRGYWGQGTTLTVSSASTKGPSVFPLAPSSKSTSGGTAALGCLVKDYFPEPVTVSWNSGALTSGVHTFPAVLQSSGLYSLSSVVTVPSSSLGTQTYICNVNHKPSNTKVDKKVEPKSCDKTHTGGSSGSGSGSTGTSSSGTGTSAGTTGTSASTSGSGSGGGGGSGGGGSAGGTATAGASSGSECKEALAKSEMNVNMKYQLPNFTAETPIQNVILHEHHIFLGATNYIYVLNEEDLQKVAEYKTGPVLEHPDCFPCQDCSSKANLSGGVWKDNINMALVVDTYYDDQLISCGSVNRGTCQRHVFPHNHTADIQSEVHCIFSPQIEEPSQCPDCVVSALGAKVLSSVKDRFINFFVGNTINSSYFPDHPLHSISVRRLKETKDGFMFLTDQSYIDVLPEFRDSYPIKYVHAFESNNFIYFLTVQRETLDAQTFHTRIIRFCSINSGLHSYMEMPLECILTEKRKKRSTKKEVFNILQAAYVSKPGAQLARQIGASLNDDILFGVFAQSKPDSAEPMDRSAMCAFPIKYVNDFFNKIVNKNNVRCLQHFYGPNHEHCFNRTLLRNSSGCEARRDEYRTEFTTALQRVDLFMGQFSEVLLTSISTFIKGDLTIANLGTSEGRFMQVVVSRSGPSTPHVNFLLDSHPVSPEVIVEHTLNQNGYTLVITGKKITKIPLNGLGCRHFQSCSQCLSAPPFVQCGWCHDKCVRSEECLSGTWTQQICLPAIYKVFPNSAPLEGGTRLTICGWDFGFRRNNKFDLKKTRVLLGNESCTLTLSESTMNTLKCTVGPAMNKHFNMSIIISNGHGTTQYSTFSYVDPVITSISPKYGPMAGGTLLTLTGNYLNSGNSRHISIGGKTCTLKSVSNSILECYTPAQTISTEFAVKLKIDLANRETSIFSYREDPIVYEIHPTKSFISGGSTITGVGKNLNSVSVPRMVINVHEAGRNFTVACQHRSNSEIICCTTPSLQQLNLQLPLKTKAFFMLDGILSKYFDLIYVHNPVFEPFEKPVMISMGNENVLEIKGNDIDPEAVKGEVLKVGNKSCENIHLHSEAVLCTVPNDLLKLNSELNIEWKQAISSTVLGKVIVQPDQNFTASGAAWSHPQFEKGAAWSHPQFEKGAAWSHPQFEKGAAHHHHHH
